From a compilation of properties of binary mixtures (doi:10.1016/j.molliq.2022.119758)
The densities may have been worked out from excess volumes.

Experiment: xn = mol fraction of the nth substance listed
Settings: 101 kPa

O=C1CCCO1 + CCC[N+]1(C)CCCC1.O=S(=O)([N-]S(=O)(=O)C(F)(F)F)C(F)(F)F
x2 = 0
Settings | mass density [kg/m3]
278.15 K | 1144.7
298.15 K | 1125
308.15 K | 1115.2
328.15 K | 1095.5
338.15 K | 1085.6
358.15 K | 1065.7

CCC[N+]1(C)CCCC1.O=S(=O)([N-]S(=O)(=O)C(F)(F)F)C(F)(F)F + O=C1CCCO1
mass density [kg/m3]
Settings | 278.15 K | 288.15 K | 298.15 K | 308.15 K | 318.15 K | 328.15 K | 338.15 K | 348.15 K | 358.15 K
x1 = 0.0657 | – | 1197 | 1187.2 | 1177.5 | 1167.8 | 1158.2 | – | 1138.8 | 1129.2
x1 = 0.1741 | 1277.1 | – | 1257.8 | 1248.1 | 1238.6 | – | – | – | –
x1 = 0.3874 | 1345.4 | 1335.9 | 1326.3 | 1316.9 | 1307.5 | 1298.9 | 1288.9 | 1279.6 | 1270.4
x1 = 1 | – | 1436.5 | 1427.5 | 1418.5 | 1409.6 | 1400.7 | 1391.9 | 1382.5 | –
